Data: PubChem BioAssay AID1478 (National Center for Advancing Translational Sciences (NCATS), 2009)
Values joined by “and” are separate entries in the source; they are usually repeats but may differ in a detail not shown here. Equal entries are not always repeated. About 860 (0.43%) of roughly 200,000 compounds were called active. The inconclusive results got no clear call from the source; some entries with a clear call stand among them for comparison. Calls come from the whole dose curve; as a rule, active = well fitted inhibition curve with a large enough effect; inconclusive = small, poorly fitted or top-dose-only effect; inactive = flat fitted curve, though single readings scatter. Potencies beside an inconclusive call are fits to weak or partial responses and may not hold up.

What follows are compounds tested against Cruzipain (Trypanosoma cruzi) (UniProt P25779) (assay: qHTS Assay for Promiscuous and Specific Inhibitors of Cruzain (with detergent)). Settings: purified cruzain, Z-FR-AMC fluorescence, 0.01% Triton.
Chain of UniProt P25779 (P25779 whole entry, looked up): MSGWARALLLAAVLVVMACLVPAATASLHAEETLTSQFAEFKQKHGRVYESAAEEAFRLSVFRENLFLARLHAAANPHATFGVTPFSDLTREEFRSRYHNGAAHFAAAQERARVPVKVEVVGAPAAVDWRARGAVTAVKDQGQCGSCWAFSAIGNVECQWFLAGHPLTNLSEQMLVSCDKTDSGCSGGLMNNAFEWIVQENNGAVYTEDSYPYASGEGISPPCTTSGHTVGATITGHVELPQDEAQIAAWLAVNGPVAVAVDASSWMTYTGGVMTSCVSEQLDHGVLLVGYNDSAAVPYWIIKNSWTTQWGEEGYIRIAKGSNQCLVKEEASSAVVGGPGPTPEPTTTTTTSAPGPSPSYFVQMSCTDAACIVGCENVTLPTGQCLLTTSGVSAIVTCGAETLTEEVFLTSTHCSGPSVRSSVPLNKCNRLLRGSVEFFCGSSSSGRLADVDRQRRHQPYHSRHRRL
Procedure, shortened: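 Cruzain (1.5 nM) preincubated 15 min at RT with compound in 100 mM sodium acetate pH 5.5, 5 mM DTT, 0.01% Triton X-100. Reaction started with 2 uM Z-FR-AMC; AMC fluorescence (ex 360/em 450 nm) change over 60 s gave rate.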
Note: nearly all actives have a fitted effect of over 40% in size.
Potency is the fitted concentration of half-maximal effect; tags give direction and shape of the fitted curve.
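Throughout, for max response, negative = inhibition: plate controls were neutral wells for no effect and buffer without enzyme for full effect.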

Row | SMILES | Potency | max response, negative = inhibition
1 | COc1cc(NC(=O)COC(=O)CNC(=O)c2ccc(Cl)cc2)c(C)cc1[N+](=O)[O-] | active: 12.6 µM | 
2 | COc1ccccc1NC(=O)CSc1nnc(COc2ccc(Cl)cc2)n1Cc1ccco1 | inconclusive: 28.2 µM [inhibitor, single point] | 
3 | Oc1ccc2ccccc2c1CNc1cnc2ccccc2c1 | inconclusive: 12.6 µM [inhibitor, partial curve] | 
4 | O=C(CNS(=O)(=O)c1ccccc1)OCC(=O)c1ccc([N+](=O)[O-])cc1 | inconclusive: 28.2 µM [inhibitor, single point] | 
5 | CCOc1cc(C2C(C#N)=C(N)SC(N)=C2C#N)ccc1OCCN1CCOCC1 | inconclusive: 35.5 µM [inhibitor, single point] | 
6 | Cc1cccc(-n2c(-c3csc4ccccc34)n[nH]c2=S)c1 | inconclusive: 31.6 µM [inhibitor, single point] | 
7 | CC(C)c1cc(C(=O)NC(C)c2ccccc2)no1 (configuration not stated) |  | inactive: -3.49%
8 | COCCn1c(C)cc(C(=O)COC(=O)CNC(=O)c2ccccc2)c1C | inconclusive: 25.1 µM [inhibitor, partial curve] | 
9 | COC(=O)c1ccc(COn2c(=O)c(C)[n+]([O-])c3ccccc32)cc1 | inconclusive: 28.2 µM [inhibitor, single point] | 
10 | Cc1ccc(Cn2ccnc2SCC(=O)NCc2ccccc2)cc1 |  | inactive: -2.32%
11 | CCOC(=O)c1cc(-c2ccc(/C=C3/C(=O)NC(=O)C(C#N)=C3C)o2)ccc1Cl | inconclusive: 17.8 µM [inhibitor, single point] | 
12 | CCCn1c(=N)c(C(=O)NCC2CCCO2)cc2c(=O)n3cc(C)ccc3nc21 (configuration not stated) | inconclusive: 31.6 µM [inhibitor, single point] | 
13 | Cc1nn(C(C)C(=O)NCc2ccc(OC(C)C)cc2)c(=O)c2c1sc1ccccc12 (configuration not stated) | inconclusive: 11.2 µM [inhibitor, partial curve] | 
14 | COc1ccc(-c2noc(CSc3nc4ccccc4[nH]3)n2)cc1OC |  | inactive: -13.8%
15 | CC(CCC(=O)O)C1CCC2C3CC[C@H]4CC(O)CC[C@@]4(C)C3C=C[C@]12C (some centres not stated) | inconclusive: 28.2 µM [inhibitor, single point] | 
16 | COc1cccc(/C=C/c2nc(C#N)c(N3CCN(C)CC3)o2)c1 | active: 25.1 µM | 
17 | N#Cc1cc2c(=O)n3ccccc3nc2n(-c2nnc(SCc3ccccc3Cl)s2)c1=O |  | inactive: -1.78%
18 | COc1ccnc(CS(=O)c2nc3ccc(OC(F)F)cc3[nH]2)c1OC (configuration not stated) | inconclusive: 39.8 µM [inhibitor, single point] | 
19 | COc1cccc(N(CC(=O)N2CCN(c3ccccc3OC)CC2)S(C)(=O)=O)c1 |  | inactive: 3.89%
20 | O=c1c(O)c(-c2ccc(O)c(O)c2)oc2cc(O)cc(O)c12 | inconclusive: 28.2 µM [inhibitor, partial curve] | 
21 | CCCSC1=N/C(=C\C=C\c2ccco2)C(=O)S1 | inconclusive: 35.5 µM [inhibitor, single point] | 
22 | COc1ccc(-c2coc3c(CN4CCCCC4)c(O)c(CN4CCCCC4)c(O)c3c2=O)cc1 | inconclusive: 15.8 µM [inhibitor, single point] | 
23 | C=C(C)Cn1c(SCC)nc2ccccc2c1=O |  | inactive: -5.74%

Row | SMILES | Potency | max response, negative = inhibition
24 | CC(NC(=O)C1CCN(S(=O)(=O)c2ccc(F)cc2)CC1)c1ccccc1 (configuration not stated) | inconclusive: 35.5 µM [inhibitor, single point] | 
25 | c1coc(-c2nc3nc4ccccc4nc3n2CC2CCCO2)c1 (configuration not stated) | inconclusive: 25.1 µM [inhibitor, single point] | 
26 | N#CC1=C2SCN(C3CCCCC3)CN2C(=O)CC1c1ccc(Br)cc1 (configuration not stated) | inconclusive: 28.2 µM [inhibitor, single point] | 
27 | Cc1ccc(C2CC(=O)N3CN(c4ccc(Br)cc4)CSC3=C2C#N)o1 (configuration not stated) | inconclusive: 31.6 µM [inhibitor, single point] | 
28 | O=C(NCCc1nc2ccccc2[nH]1)/C(=C/c1ccc2c(c1)OCO2)NC(=O)c1ccc(Cl)cc1Cl | inconclusive: 28.2 µM [inhibitor, single point] | 
29 | CN(C)c1ccc(N=O)cc1 | active: 25.1 µM | 
30 | CC(C)[N+]1(C)[C@@H]2CC[C@H]1CC(OC(=O)[C@@H](CO)c1ccccc1)C2 (some centres not stated) |  | inactive: -3.53% and inactive: -1.92%
31 | O=C(Nc1ccc(Cl)cc1Cl)c1cc(S(=O)(=O)N2CCCCCC2)ccc1F |  | inactive: 1.36%
32 | Cn1c(C(=O)NCC2CCCO2)cc2c(=O)n3ccccc3nc21 (configuration not stated) | inconclusive: 31.6 µM [inhibitor, single point] | 
33 | O=C(NCCc1nc2ccccc2n1Cc1c(F)cccc1Cl)c1ccco1 | inconclusive: 25.1 µM [inhibitor, partial curve] | 
34 | O=C(NNC(=O)c1cc2cc3ccccc3nc2s1)c1ccc(F)cc1 | inconclusive: 15.8 µM [inhibitor, partial curve] | 
35 | Oc1ccccc1/C=N/c1c(-c2ccco2)nc2ccccn12 | inconclusive: 35.5 µM [inhibitor, single point] | 
36 | S=C(Nc1cccc(Cl)c1)Nc1cccc2cnccc12 | inconclusive: 17.8 µM [inhibitor, single point] | 
37 | COc1cccc(-c2cc3nc(-c4ccccc4)cc(N4CCC5(CC4)OCCO5)n3n2)c1 | active: 28.2 µM | 
38 | Cc1ccccc1-n1c(=O)c(C#N)cc2c(=O)n3ccccc3nc21 | inconclusive: 31.6 µM [inhibitor, single point] | 
39 | COc1ccc(-c2cc(C#N)nc(Oc3ccc(Cl)cc3)n2)cc1 | active: 28.2 µM | 
40 | COCCn1c(N)c(S(=O)(=O)c2cccs2)c2nc3ccccc3nc21 | inconclusive: 31.6 µM [inhibitor, single point] | 
41 | O=C(Nc1ccc(Cl)c([N+](=O)[O-])c1)c1ccc(NCCCN2CCOCC2)c([N+](=O)[O-])c1 | inconclusive: 31.6 µM [inhibitor, single point] | 
42 | CCC(C)n1c(-c2ccco2)nc2nc3ccccc3nc21 (configuration not stated) | inconclusive: 17.8 µM [inhibitor, partial curve] | 
43 | O=C(Nc1ccc(N2CCOCC2)cc1)Nc1ccc2nc(-c3ccco3)c(-c3ccco3)nc2c1 | inconclusive: 3.98 µM [inhibitor, partial curve] | 
44 | CC(C)=C1CCC(C)CC1=O (configuration not stated) |  | inactive: 1.55%
45 | Cc1ccc(C2=N/C(=C\c3cccnc3)C(=O)O2)cc1 | active: 14.1 µM | 
46 | O=C(O)COc1ccccc1/C=C1\SC(=S)N(/N=C/c2ccccc2O)C1=O | active: 28.2 µM | 

Row | SMILES | Potency | max response, negative = inhibition
47 | Cc1oc2c(cc(NS(=O)(=O)c3ccc(C(C)C)cc3)c3ccccc32)c1C(=O)O | inconclusive: 25.1 µM [inhibitor, single point] | 
48 | O=C(c1cc2c(ccc3ccccc32)oc1=O)N1CCN(CCO)CC1 | inconclusive: 25.1 µM [inhibitor, single point] | 
49 | O=S(=O)(N/N=C/c1ccc2c(c1)OCCO2)c1ccccc1 |  | inactive: -5.3%
50 | COc1cc2c(cc1OC)-c1cc(OCc3cccnc3)nc(=O)n1CC2 | inconclusive: 31.6 µM [inhibitor, single point] | 
51 | CCCOc1ccc(-c2nnc(-c3cccs3)o2)cc1 | inconclusive: 35.5 µM [inhibitor, single point] | 
52 | CN1CCN(c2ncc3nc(-c4ccccc4)c(=O)n(C4CC4)c3n2)CC1 | active: 31.6 µM | 
53 | C/C(=N/Nc1nc(-c2ccc(Cl)cc2)cs1)c1cccs1 | inconclusive: 7.94 µM [inhibitor, partial curve] | 
54 | C=C1CCC2[C@](C)(CO)C(O)CC[C@]2(C)C1C/C=C1/C(=O)OCC1O (some centres not stated) |  | inactive: 6.84%
55 | CN(CCO)c1nc(N)c2c(N)nc3c(c2c1C#N)CC(=O)N3C1CCCC1 | inconclusive: 39.8 µM [inhibitor, single point] | 
56 | CSCCC(NC(=O)c1ccc(Cl)cc1)C(=O)OCC(=O)Nc1cc(Cl)ccc1C (configuration not stated) | active: 22.4 µM | 
57 | O=C(CNC(=O)c1cccs1)OCC(=O)c1ccc2ccccc2c1 | inconclusive: 25.1 µM [inhibitor, partial curve] | 
58 | Cc1ccc(COc2ccc3oc(-c4ccccc4)c(C(=O)O)c3c2)cc1 | inconclusive: 39.8 µM [inhibitor, single point] | 
59 | CCOC(=O)c1ccc(-c2ccc(CO)o2)cc1 | inconclusive: 31.6 µM [inhibitor, single point] | 
60 | N#Cc1nc(-c2ccc(OCc3ccc(Cl)cc3)cc2)oc1NCCCn1ccnc1 | inconclusive: 20 µM [inhibitor, single point] | 
61 | Cc1ccn2c(CCc3nnc4cc(C)ccn34)nnc2c1 |  | inactive: 3.03%
62 | COc1ccc(NC(=S)NCCSc2ccc(Cl)cc2)c(OC)c1 | inconclusive: 1.26 µM [inhibitor, full curve, poor fit] | 
63 | CC(C)[C@@H]1NC(=O)c2cc([N+](=O)[O-])cc(I)c2NCCC[C@@H](C(N)=O)NC(=O)[C@H](CO)NC1=O | inconclusive: 25.1 µM [inhibitor, partial curve] | 
64 | COc1cc([N+](=O)[O-])ccc1-c1ccc(C(=O)Nc2ccc(NC(C)=O)cc2)o1 | inconclusive: 17.8 µM [inhibitor, partial curve] | 
65 | CCc1cccc2c(-c3ccccc3)c3c(nc12)OCC3 |  | inactive: -11.6%
66 | Cc1cccc(N2CCN(c3ccc(C(=O)O)cc3NC(=O)c3cccc(Cl)c3)CC2C)c1 (configuration not stated) | inconclusive: 28.2 µM [inhibitor, single point] | 
67 | CCOc1cccc(C(=O)NC(=S)Nc2ccc(N3CCCC3)cc2)c1 | inconclusive: 39.8 µM [inhibitor, single point] | 
